Test results: the antibiotic and cytotoxicity screens of Wong et al. (2023)
The list shows a part of the results.

Assays:
HSkMC = human skeletal muscle cells; assay: cytotoxicity call (relative viability < 0.9); settings: 10 µM
HepG2 = assay: cytotoxicity call (relative viability < 0.9); settings: 10 µM
S. aureus RN4220 = assay: growth inhibition call (relative growth <= 0.2); settings: 50 µM

C[C@H]1O[C@@H](O[C@@H]2[C@@H](OC(=O)/C=C/c3ccc(O)c(O)c3)[C@H](CO)O[C@H](OCCc3ccc(O)c(O)c3)[C@@H]2O[C@H]2OC[C@@H](O)[C@@H](O)[C@@H]2O)[C@@H](O)[C@@H](O)[C@@H]1O
inactive: cytotoxicity call (HSkMC) | cytotoxicity call (HepG2) | growth inhibition call (S. aureus RN4220)

COCC(=O)N1CC(=O)N2[C@H](C1)[C@H](c1ccc(C#Cc3cccnc3)cc1)[C@@H]2CO
inactive: cytotoxicity call (HSkMC) | cytotoxicity call (HepG2) | growth inhibition call (S. aureus RN4220)

C[C@@H]1CN([C@H](C)CO)C(=O)c2c(c3ccccc3n2C)-c2ccccc2CO[C@H]1CN(C)Cc1ccc2c(c1)OCO2
inactive: cytotoxicity call (HSkMC) | cytotoxicity call (HepG2) | growth inhibition call (S. aureus RN4220)

NC(=O)N1CCC(=O)Nc2ccccc21
inactive: cytotoxicity call (HSkMC) | cytotoxicity call (HepG2) | growth inhibition call (S. aureus RN4220)

NCc1ccccc1-n1cccn1
inactive: cytotoxicity call (HSkMC) | cytotoxicity call (HepG2) | growth inhibition call (S. aureus RN4220)
